From PubChem BioAssay AID445 (National Center for Advancing Translational Sciences (NCATS), 2006)
Among all 110,000 compounds or so, about 40 (0.04%) were called active. The shares of active, inactive and inconclusive entries below differ from those in the screen. Calls come from the whole dose curve; as a rule, active = well fitted curve in the direction sought with a large enough effect in the signal ratio (not every such curve was filed as active); inconclusive = small, poorly fitted or top-dose-only effect, or a change in a side signal; inactive = flat fitted curve, though single readings scatter; the % refers to the signal ratio. Where the call is inconclusive, the potency comes from a doubtful curve fit.

Experiment: IkB Signaling;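 for IkBa stabilization activation: 0% = basal untreated cells and 100% = reference inhibitor full response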
Conditions: ABC-DLBCL IkBa-CBG/CBR dual luciferase ratio (green luciferase fused to IkBa over red control in OCI-Ly3 lymphoma cells), 4 h; IkBa stabilization activation: at 57.1 µM (top of the series), scaled: untreated 0%, proteasome inhibitor 100% unless noted
How it was run: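 Curves were fitted separately to fusion (green), unfused (red) and ratio luminescence, then classed by r2, magnitude and activity. Cells: OCI-Ly3, 4 h compound plus doxycycline at 37C; 10 uM MG-132 defined full response.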
Potency is the fitted concentration of half-maximal effect.

| SMILES | IkBa stabilization activation | Potency |
| --- | --- | --- |
| Cc1cnc(CNc2ccnc(-c3c(C)noc3C)n2)cn1 | inactive: 1.36% [at 11.4 µM, scaled: untreated 0%, proteasome inhibitor 100%] | – |
| COc1cccc(C(=O)Nc2ccc3nc(SCC(=O)N4CCc5ccccc54)sc3c2)c1 | inconclusive: 4.53% [signal inhibitor] | – |
| Cc1sc2c(c1C)c(=O)n(-c1ccc(Cl)cc1)c(=O)n2CC(=O)c1ccccc1 | inconclusive: 1.79% [signal inhibitor] | – |
| CCOc1ccc2nc(N3CCC(C(=O)N4CCN(C5CCCCC5)CC4)CC3)sc2c1 | inactive: 9.31% | – |
| Cc1c(NC(=O)c2ccc(-c3ccc(F)cc3)o2)cccc1-c1nc2ncccc2o1 | – | inconclusive: 7.94 µM [signal inhibitor] |
| CN(C)c1ccc(-c2ccc3ncnc(NC4CC4)c3c2)cc1 | inactive: 4.24% [at 11.4 µM, scaled: untreated 0%, proteasome inhibitor 100%] | – |
| O=c1[nH]c2ccc(S(=O)(=O)Nc3cc(Cl)ccc3O)cc2o1 | inconclusive: 10.1% [signal inhibitor] | – |
| N#CC1=C(N)NC(SCc2ccccc2)=C(C#N)C12CCCCC2 | inconclusive: -7.07% [signal inhibitor] | – |
| Cc1ccc(-c2nc3scc(CCNS(=O)(=O)c4c(C)noc4C)n3n2)cc1 | inactive: -1.27% | – |
| CC(CCc1ccco1)NC(=O)c1cc2c(-c3ccccc3F)nn(C)c2s1 (centres undefined) | inconclusive: 2.49% [signal inhibitor] | – |
| CCOc1ccccc1N1CCN(S(=O)(=O)c2ccc3c4c(cccc24)C(=O)N3)CC1 | inconclusive: 4.86% [signal inhibitor] | – |
| CC(=O)Nc1cccc(-c2nnc(-c3ccccc3)o2)c1 | – | inconclusive: 25.1 µM [signal inhibitor, partial curve] |
| N#Cc1nc(COc2ccccc2F)oc1NCc1ccc(F)cc1 | inactive: -1.25% | – |
| Cc1cc(F)ccc1NC(=O)CN1C(=O)CCc2cc(S(=O)(=O)N3CCOCC3)ccc21 | inconclusive: -2.09% [signal inhibitor] | – |
| Cc1ccc(-n2ncc(C(=O)N(C)Cc3ccccc3)c2-n2cccc2)cc1 | inconclusive: -0.522% [signal inhibitor] | – |
| CC(CNC(=O)c1cc2ccccn2n1)c1ccccc1 (centres undefined) | – | inconclusive: 25.1 µM [signal inhibitor, partial curve] |
| CC(C)n1c(NCc2cc(Cl)ccc2O)nc2ccccc21 | inconclusive: -3.74% [signal inhibitor] | – |
| Cc1cc(Br)ccc1NC(=O)C(NS(=O)(=O)c1cccs1)c1ccccc1 (centres undefined) | inconclusive: 6.1% [signal inhibitor] | – |
| COc1ccc2c(CNCCc3ccccc3OC)c(C(=O)O)n(Cc3ccc(F)cc3Cl)c2c1 | inconclusive: 0.0324% [signal inhibitor] | – |
| CSc1cccc(NC(=O)N2CCN(S(=O)(=O)c3ccc4c(ccn4C)c3)CC2)c1 | inactive: 1.88% | – |
| COc1ccc(C2=NS(=O)(=O)N(C)C(C(=O)NC(C)c3ccccc3)=C2)cc1OC (centres undefined) | – | inconclusive: 39.8 µM [signal inhibitor] |
| CCNc1ncc2nc(-c3ccc(F)cc3)c(=O)n(C[C@H]3CCCO3)c2n1 | inactive: -8.09% [at 11.4 µM, scaled: untreated 0%, proteasome inhibitor 100%] | – |

| SMILES | IkBa stabilization activation | Potency |
| --- | --- | --- |
| CC(=O)O[C@@H]1CC[C@]2(C)C(=C[C@@H]([C@@H]3C=C4C[C@@H](OC(C)=O)CC[C@]4(C)C4=C3[C@H]3C[C@@H]5O[C@@]6(CC[C@H](C)CO6)[C@@H](C)[C@@H]5[C@@]3(C)CC4)C3=C2CC[C@@]2(C)[C@H]4[C@@H](C)[C@]5(CC[C@H](C)CO5)O[C@@H]4C[C@H]32)C1 | inactive: -0.548% [at 11.4 µM, scaled: untreated 0%, proteasome inhibitor 100%] | – |
| O=C(CSc1nc(-c2ccccc2)no1)N1CCN(c2ccc(F)cc2)CC1 | – | inconclusive: 15.8 µM [signal inhibitor, partial curve] |
| CC1=C(C(=O)OC2CCCC2)C(c2ccc(Cl)cc2)CC(=O)N1 (centres undefined) | inconclusive: 2.22% [signal inhibitor] | – |
| Cc1cc(C)cc(NC(=O)CN(c2cccc(C)c2C)S(=O)(=O)c2ccccc2)c1 | inconclusive: 7.09% [signal inhibitor] | – |
| Cn1ccnc1SCC(=O)c1cc2ccccc2o1 | inconclusive: 4.98% [signal inhibitor] | – |
| COc1nc(-c2ccccc2)ccc1-c1noc(COc2ccccc2)n1 | inactive: 1.96% | – |
| Cc1cc(C)cc(NC(=O)c2cc3c(=O)n(Cc4ccco4)ccc3nc2C)c1 | inconclusive: 1.89% [signal inhibitor] | – |
| O=C1N(Cc2ccc3c(c2)OCO3)c2ccccc2C1(O)c1c[nH]c2ccccc12 (centres undefined) | inconclusive: 2.59% [signal inhibitor] | – |
| CC(C)(C)CC(C)(C)c1ccc(O)c(C[N+](C)(C)[O-])c1 | inactive: 0.979% [at 11.4 µM, scaled: untreated 0%, proteasome inhibitor 100%] | – |
| O=C(COc1cccc(OC(F)F)c1)Nc1ccc(SC(F)F)cc1 | inconclusive: 4.51% [signal inhibitor] | – |
| CN(C)c1ccc(-c2nc(NCCc3cnc[nH]3)c3ccccc3n2)cc1 | inactive: -8.14% [at 11.4 µM, scaled: untreated 0%, proteasome inhibitor 100%] | – |
| Cc1cc2c(cc1S(=O)(=O)CCC(=O)N(C)Cc1ccccc1)OCC(=O)N2 | inconclusive: 1.79% [signal inhibitor] | – |
| CC1CCc2nc(NC(=O)Cc3ccc(Cl)cc3)sc2C1 (centres undefined) | inconclusive: -4.38% [signal inhibitor] | – |
| CCOc1cccc(C2c3[nH]c4ccccc4c3CCN2C(=O)Cc2cccc(OCC)c2OCC)c1 (centres undefined) | inconclusive: 0.343% [signal inhibitor] | – |
| COc1ccc(Cl)cc1C(=O)Nc1ccccc1N1CCN(C)CC1 | inconclusive: 3.75% [signal inhibitor] | – |
| Cc1nn(C)c2c1c(C(F)(F)F)cc(=O)n2C(C)C(=O)NCc1ccccc1 (centres undefined) | inconclusive: 1.02% [signal inhibitor] | – |
| C#CCSc1nnc(-c2ccccc2)c(=O)[nH]1 | – | inconclusive: 25.1 µM [signal inhibitor, partial curve] |
| Cc1ccc(-c2cn3c(n2)sc2cc(C(=O)NC4CCCCCC4)ccc23)c(C)c1 | inconclusive: 1.84% [signal inhibitor] | – |
| Cc1cccc(NC(c2nnc(-c3ccccc3)o2)c2ccc(F)cc2Cl)c1C (centres undefined) | inconclusive: 1.72% [signal inhibitor] | – |
| Cc1oc2c(c(C)cc3oc(=O)c(CC(=O)NCCc4ccc(Cl)cc4)c(C)c32)c1C | inconclusive: 0.873% [signal inhibitor] | – |
| CC(C)c1nn2c(=O)cc(COC(=O)COc3ccccc3F)nc2s1 | inactive: 3.32% | – |
| Cc1ccc(C)c(N2CCN(CCCNC(=O)c3ccc4nc(C(C)C)oc4c3)CC2)c1 | inactive: -0.0167% | – |

| SMILES | IkBa stabilization activation | Potency |
| --- | --- | --- |
| COc1cccc(-c2cn3c(n2)sc2cc(C(=O)NCCc4ccccc4)ccc23)c1 | inconclusive: 2.92% [signal inhibitor] | – |
| CCCN(C(=O)Cn1nc(Cc2cccnc2)c2ccccc2c1=O)c1ccc(C(C)C)cc1 | inconclusive: -1.83% [signal inhibitor] | – |
| CCCCN(C(=O)c1ccc(Cl)cc1)C1CC2CCC(C1)N2C (centres undefined) | inactive: -2.38% | – |
| CCOC(=O)c1cc2sc(C)cc2n1CC(=O)N1CCc2ccccc21 | inactive: -1.61% | – |
| CCOc1ccc(CCNC(c2nnc(-c3ccccc3)o2)c2ccccc2Cl)cc1OCC (centres undefined) | inconclusive: 1.96% [signal inhibitor] | – |
| CCCn1c2ccc(C)cc2c2nnc(SCCN3CCCCC3)nc21 | inconclusive: -1.02% [signal inhibitor] | – |
| COc1ccc(CCNC(=O)c2cc(-c3ccc(C)c(C)c3)nc3ccccc23)cc1OC | inconclusive: 0.283% [signal inhibitor] | – |
| COc1ccccc1CNc1ccnc(-c2ccoc2)n1 | inactive: -1.48% [at 11.4 µM, scaled: untreated 0%, proteasome inhibitor 100%] | – |
| O=C(CN1C(=O)CC(c2ccco2)Sc2ccccc21)Nc1ccc(OC(F)(F)F)cc1 (centres undefined) | inconclusive: 1.91% [signal inhibitor] | – |
| O=C(NCc1ccc2c(c1)OCO2)c1ccc(-c2ccc(Cl)cc2)o1 | inconclusive: -1.93% [signal inhibitor] | – |
| Cc1nc2c(ccc3nc(NC(=O)c4ccc5c(c4)OCCO5)sc32)s1 | inconclusive: 3.51% [signal inhibitor] | – |
| CC1=C(C(=O)OC2CCCCCC2)C(c2c(Cl)cccc2Cl)CC(=O)N1 (centres undefined) | inconclusive: -9.93% [signal inhibitor] | – |
| COCCN1Cc2cccc(C(=O)Nc3ccc(C)c(C)c3)c2C1=O | inactive: 0.513% | – |
| O=C(C1CCN(S(=O)(=O)c2cccc3cccnc23)CC1)N1CCN(c2ccccn2)CC1 | inactive: -0.313% | – |
| Cc1cccc(NC(=O)c2ccc(F)c(S(=O)(=O)N3CCN(c4ccc(F)cc4)CC3)c2)c1 | inconclusive: 0.857% [signal inhibitor] | – |
| Cc1ccc(-c2cn3c(n2)sc2cc(C(=O)NC4CCCCC4)ccc23)cc1 | inconclusive: 0.31% [signal inhibitor] | – |
| COC(=O)c1sccc1NC(=O)c1ccoc1C | inactive: -4.21% | – |
| CCOc1ccccc1NC(=O)c1cn(C2CCCCC2)c(=O)c2c1c1ccccc1n2C | inconclusive: 5.66% [signal inhibitor] | – |
| CCC(=O)Nc1nc2ccc(NC(C)=O)cc2s1 | inactive: 0.765% | – |
| COc1cccc(C2CC(c3ccccc3Cl)Nc3ncnn32)c1 (centres undefined) | inactive: -1.74% | – |
